# Results from PubChem BioAssay AID1768 (National Center for Advancing Translational Sciences (NCATS), 2009).
# Screen size: about 270,000 compounds; about 620 (0.23%) were called active. This list was built around the results that the source calls inconclusive (neither active nor inactive); the mix of calls is not that of the screen. Calls come from the whole dose curve; as a rule, active = well fitted inhibition curve with a large enough effect in the polarisation, with a control signal flat (not every such curve was filed as active); inconclusive = small, poorly fitted or top-dose-only effect, or effect the other way, or a change in a side signal; inactive = no such curve, though single readings can be large or run the other way; the % refers to the polarisation. Potencies of inconclusive entries are doubtful fits and often do not repeat. “Side channel” marks fits to a control or component signal instead of the main read-out.
# Molecular target: Menin (Homo sapiens) (UniProt O00255)
# Experiment: qHTS Assay for Inhibitors Targeting the Menin-MLL Interaction in MLL Related Leukemias: Competition With Texas Red Labeled MLL-derived Mutant Peptide
# Details: fluorescence polarization; series mostly up to 61.6 µM
# Potency is the fitted concentration of half-maximal effect; tags give direction and shape of the fitted curve or compound fluorescence and quenching.
# Sequence of UniProt O00255 (O00255 whole entry, looked up): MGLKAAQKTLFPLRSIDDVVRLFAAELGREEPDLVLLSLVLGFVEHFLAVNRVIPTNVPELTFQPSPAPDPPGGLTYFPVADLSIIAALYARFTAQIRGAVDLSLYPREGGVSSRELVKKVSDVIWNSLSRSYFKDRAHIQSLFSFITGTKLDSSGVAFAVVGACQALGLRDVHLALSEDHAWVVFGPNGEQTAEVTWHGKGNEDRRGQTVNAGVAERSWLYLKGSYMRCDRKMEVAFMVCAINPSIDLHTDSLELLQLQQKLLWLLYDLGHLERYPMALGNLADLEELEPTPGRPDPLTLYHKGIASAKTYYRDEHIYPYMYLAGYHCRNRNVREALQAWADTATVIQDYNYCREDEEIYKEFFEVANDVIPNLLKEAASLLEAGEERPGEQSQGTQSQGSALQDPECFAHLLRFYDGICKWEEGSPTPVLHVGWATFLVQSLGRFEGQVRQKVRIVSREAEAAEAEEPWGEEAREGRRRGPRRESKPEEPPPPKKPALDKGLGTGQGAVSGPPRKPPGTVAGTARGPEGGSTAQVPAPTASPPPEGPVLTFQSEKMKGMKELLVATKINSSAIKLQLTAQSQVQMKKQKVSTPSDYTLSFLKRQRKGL
row,Structure (SMILES),Potency
1,CC(=O)c1sc2nc(-c3cccs3)ccc2c1N,"inconclusive: 28.2 µM [quencher, side channel, single point]"
2,Nc1c(C(=O)O)ccc2c1C(=O)c1ccccc1C2=O,"inconclusive: 25.1 µM [fluorescent, side channel, partial curve]"
3,Cc1ccc(-c2nc(C)sc2CC(=O)OCC(=O)Nc2cccc([N+](=O)[O-])c2)cc1,"inconclusive: 39.8 µM [quencher, side channel, single point]"
4,C#CC[N+](C)(C)CCCCCCCCCCCC,"inconclusive: 8.91 µM [inhibitor, single point]"
5,CN1CCN(CCCCOc2ccccc2C=O)CC1,"inconclusive: 39.8 µM [inhibitor, single point]"
6,Cc1cc(F)ccc1NCc1ccc([N+](=O)[O-])cc1,"inconclusive: 22.4 µM [quencher, side channel, partial curve]"
7,CCOc1ccccc1-c1cc(C(=O)N/N=C/c2ccc(O)c(OC)c2)c2ccccc2n1,"inconclusive: 39.8 µM [quencher, side channel, single point]"
8,Cc1cccn2c(CN(C)CCC3CCCCO3)c(C(=O)N3CCCCC3)nc12 (stereo not drawn),"inconclusive: 14.1 µM [inhibitor, partial curve]"
9,COc1cc(NS(=O)(=O)c2ccc(NC(=O)C34CC5CC(CC(C5)C3)C4)cc2)ncn1,"inconclusive: 7.08 µM [inhibitor, single point]"
10,CC1Cc2c([nH]c3ccccc23)C2c3ccccc3CN12 (stereo not drawn),"inconclusive: 3.16 µM [inhibitor, partial curve]"
11,Cc1ccc(C#N)c(SCC(=O)Nc2nccs2)n1,"inconclusive: 11.2 µM [inhibitor, partial curve]"
12,CCCc1cc(-c2[nH]ncc2-c2ccc(C(=O)OCC)o2)c(O)cc1O,"inconclusive: 25.1 µM [quencher, side channel, partial curve]"
13,COc1ccc(-c2csc(Cc3nnc(N4CCOCC4)n3-c3ccccc3)n2)cc1,"inconclusive: 31.6 µM [fluorescent, side channel, single point]"
14,O=C(Nc1ccc2ccccc2c1)c1ccc(Cl)cc1,"inconclusive: 14.1 µM [inhibitor, partial curve]"
15,O=C1N/C(=N\N=C\c2cccs2)SC1Cc1cccc(Cl)c1Cl (stereo not drawn),"inconclusive: 17.8 µM [quencher, side channel, partial curve]"
16,COC(=O)c1sccc1N/N=C/c1ccc(OC)c(OC)c1OC,"inconclusive: 17.8 µM [quencher, side channel, partial curve]"
17,CCN(CC)S(=O)(=O)c1ccc(O)c(NC(=O)c2ccc(N3CCOCC3)c([N+](=O)[O-])c2)c1,"inconclusive: 17.8 µM [quencher, side channel, partial curve]"
18,COc1ccc(Nc2ncnc3sc(-c4ccccc4)cc23)cc1,"inconclusive: 20 µM [quencher, side channel, partial curve]"
19,COC(=O)c1cccc(Cn2c(Cl)c(/C=N/Nc3ccccc3C)sc2=O)c1,"inconclusive: 25.1 µM [quencher, side channel, single point]"
20,CCOc1ccc(NC(=O)c2cnc3scc(C)n3c2=O)cc1,"inconclusive: 8.91 µM [inhibitor, single point]"

row,Structure (SMILES),Potency
1,COc1ccccc1-n1c(SCC(=O)c2ccc(O)cc2O)nc2cc([N+](=O)[O-])ccc21,"inconclusive: 25.1 µM [quencher, side channel, single point]"
2,CCOC(=O)[C@@H](N)CS,inactive
3,CCN(c1ccccc1)S(=O)(=O)c1c[nH]c2ccc([N+](=O)[O-])cc12,"inconclusive: 11.2 µM [quencher, side channel, partial curve]"
4,Cc1cccc(CNC(=O)C2CCCN(c3nn4c(=O)cc(C)nc4s3)C2)c1 (stereo not drawn),inactive
5,O=C(NNC(=S)Nc1ccc(Br)cc1)c1ccccc1,"inconclusive: 31.6 µM [quencher, side channel, single point]"
6,C#CCOCCOCCOCCNc1nc(N2CCN(C(=O)[C@H]([C@@H](C)CC)n3cc([C@@H](N)CO)nn3)CC2)nc(N2CCN(C(=O)[C@H](Cc3cc4ccccc4[nH]3)n3cc([C@@H](N)C(C)CC)nn3)CC2)n1 (stereo partly drawn),"inconclusive: 2.51 µM [fluorescent, side channel, full curve]"
7,Cc1cccn2c(CN(C)C3CCCc4ccccc43)c(C(=O)N3CCOCC3)nc12 (stereo not drawn),"inconclusive: 4.47 µM [fluorescent, side channel, partial curve]"
8,COCCn1c(=O)c(C)nc2cnc(N3CCN(C)CC3)nc21,inactive
9,COc1cc2c(cc1NC(=O)COC(=O)c1ccccc1)oc1ccccc12,"inconclusive: 17.8 µM [quencher, side channel, partial curve]"
10,CC(=O)OC1CC[C@@]2(C)C(=CC[C@H]3[C@@H]4CC[C@H](C(C)=O)[C@@]4(C)CC[C@@H]32)C1 (stereo partly drawn),inactive
11,O=C(COc1ccc(F)cc1)N(c1ccccn1)C1CCCCC1,inactive
12,Cc1ccc(C(=O)OCC(=O)Nc2ccccc2C(F)(F)F)cc1S(=O)(=O)N1CCOCC1,"inconclusive: 39.8 µM [fluorescent, side channel, single point]"
13,COc1ccccc1CN1CCCC2(CCN(C(=O)c3c(C)noc3C)CC2)C1,inactive
14,CCCNC(=O)c1c[nH]c2ccc(S(=O)(=O)N(C)c3ccc(OCC)cc3)cc2c1=O,"inconclusive: 15.8 µM [quencher, side channel, partial curve]"
15,CCOc1ccc(-c2cc(CCCC(=O)Nc3cc(OC)ccc3OC)no2)cc1,"inconclusive: 39.8 µM [inhibitor, single point]"
16,O=C(Nc1ccc2c(c1)OCO2)c1cccs1,"inconclusive: 35.5 µM [quencher, side channel, single point]"
17,COc1cc(C2C(C#N)=C(N)Oc3c2ccc2ccccc32)ccc1OCC(=O)Nc1ccccc1C (stereo not drawn),active: 25.1 µM
18,Cc1ccc(-c2nn3c(C)nnc3c3ccccc23)cc1S(=O)(=O)NCCN1CCOCC1,"inconclusive: 39.8 µM [inhibitor, partial curve, poor fit]"
19,Cc1ccc(C(=O)/C=C/Nc2ccc3c(c2)OCO3)cc1,"inconclusive: 20 µM [quencher, side channel, single point]"
20,COc1ccc(CCC(=O)NCCc2ccc(OC)c(OC)c2)cc1,"inconclusive: 3.16 µM [inhibitor, full curve]"

row,Structure (SMILES),Potency
1,Cc1cc(C)nc(N/N=C/c2ccccc2OCC(=O)O)n1,"inconclusive: 25.1 µM [inhibitor, single point]"
2,CCN1CCN(c2ccc(NC(=O)c3ccco3)cc2Cl)CC1,"inconclusive: 15.8 µM [inhibitor, partial curve, poor fit]"
3,Cc1ccc(Oc2nc(CN3CCOCC3)nc3sc4c(c23)CCC(C)C4)cc1 (stereo not drawn),"inconclusive: 6.31 µM [fluorescent, side channel, partial curve]"
4,CCOc1ccc2[nH]c(=O)c(C(c3nnnn3Cc3ccco3)N3CCN(C)CC3)cc2c1 (stereo not drawn),inactive
5,O=C(CSc1nnc(-c2ccccn2)n1Cc1ccccc1)NC1CCCC1,"inconclusive: 44.7 µM [fluorescent, side channel, partial curve, poor fit]"
6,CCOc1ccccc1N/C(=C(/C(Cl)=C(Cl)Cl)[N+](=O)[O-])n1cncn1,"inconclusive: 20 µM [quencher, side channel, partial curve]"
7,COc1ccc(S(=O)(=O)N2CCC(C(=O)Nc3cccc(Cl)c3)CC2)cc1OC,"inconclusive: 11.2 µM [quencher, side channel, partial curve]"
8,O=C(O)/C(=C\c1ccccc1Cl)c1ccc(S(=O)(=O)N2CCCCC2)s1,"inconclusive: 28.2 µM [quencher, side channel, partial curve]"
9,Nc1ccc(NC(=O)c2ccc(C(=O)Nc3ccc(N)cc3)cc2)cc1,"inconclusive: 25.1 µM [quencher, side channel, partial curve]"
10,CCOC(=O)c1ccccc1NC(=O)CSc1nnc(Cc2cccn2C)n1-c1ccc(F)cc1,inactive
11,O=C(c1nc2ccccn2c1CN1CCC(Cc2ccccc2)CC1)N1CCCC1,"inconclusive: 12.6 µM [inhibitor, partial curve]"
12,Cc1ccc(C(=O)NCCN2C3=NC[C@@H](Cc4ccccc4)N3C[C@H]2Cc2ccc(O)cc2)cc1Br,"inconclusive: 3.16 µM [fluorescent, side channel, full curve]"
13,Cc1ccc(SCC(=O)c2c(C)[nH]c3ccccc23)cc1,"inconclusive: 39.8 µM [quencher, side channel, single point]"
14,COc1ccc2c(c1OC)C(=O)N1N=C(c3ccc(O)cc3)CC21 (stereo not drawn),"inconclusive: 10 µM [inhibitor, partial curve]"
15,COc1cccc(C(=O)NC(=O)Nc2cc(C)on2)c1,inactive
16,COc1cc(OC)c(OC)cc1/C=C/C(=O)c1ccc(NS(=O)(=O)c2ccc(C)cc2)cc1,"inconclusive: 28.2 µM [quencher, side channel, partial curve]"
17,O=C(/C=C(\c1ccc(Cl)cc1)n1cncn1)c1ccc(Cl)cc1,"inconclusive: 31.6 µM [fluorescent, side channel, single point]"
18,Cc1ccc(S(=O)(=O)Nc2ccc(O)c3ccccc23)c(C)c1,"inconclusive: 14.1 µM [quencher, side channel, partial curve]"
